# Measurements as given in the supplement of paper PMC3334620.
# Whole data set: some 33,000 sequences, median “E-score (-0.5 to 0.5)” near -0.041, cut for the highest 2% near 0.37. This is one part of the list.
# Target: T1, Ecm22 (UniProt Q05958)
# T1 sequence: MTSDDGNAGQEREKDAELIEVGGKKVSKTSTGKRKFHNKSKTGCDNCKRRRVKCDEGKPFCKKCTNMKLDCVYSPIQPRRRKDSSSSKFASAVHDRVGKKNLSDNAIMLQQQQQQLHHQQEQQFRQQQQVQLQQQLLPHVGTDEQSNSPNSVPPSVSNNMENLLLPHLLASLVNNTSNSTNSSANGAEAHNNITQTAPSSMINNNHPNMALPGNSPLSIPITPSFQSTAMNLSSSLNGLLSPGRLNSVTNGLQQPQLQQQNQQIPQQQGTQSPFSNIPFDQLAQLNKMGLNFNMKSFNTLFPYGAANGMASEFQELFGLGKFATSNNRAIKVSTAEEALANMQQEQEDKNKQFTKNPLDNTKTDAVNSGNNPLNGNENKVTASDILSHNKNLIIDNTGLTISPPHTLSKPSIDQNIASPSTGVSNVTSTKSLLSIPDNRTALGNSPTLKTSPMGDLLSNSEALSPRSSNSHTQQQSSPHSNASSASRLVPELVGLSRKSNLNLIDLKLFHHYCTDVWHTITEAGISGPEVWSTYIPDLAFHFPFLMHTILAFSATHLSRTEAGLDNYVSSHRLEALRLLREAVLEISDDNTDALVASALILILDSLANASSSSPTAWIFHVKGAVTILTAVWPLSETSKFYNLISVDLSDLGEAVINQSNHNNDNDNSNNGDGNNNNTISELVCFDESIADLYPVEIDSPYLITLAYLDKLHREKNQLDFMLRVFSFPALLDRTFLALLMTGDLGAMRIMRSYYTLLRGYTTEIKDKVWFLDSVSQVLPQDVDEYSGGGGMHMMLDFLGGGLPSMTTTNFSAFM
# Test: PBM E-score (8-mer binding enrichment) (E-score (-0.5 to 0.5)); higher = stronger / more preferred TF binding; most listed sequences are background and not binding sites
# Conditions: protein concentration: 200 nM; construct: GST-full length
# Procedure, shortened: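 Universal all-10-mer Agilent arrays, fresh or stripped once, were converted to double-stranded form by primer extension. GST-tagged yeast transcription factors from PURExpress in vitro transcription/translation, full-length or DNA-binding domain only, were applied at about 100-200 nM and detected with fluorescent anti-GST. After masliner normalisation, the Universal PBM Analysis Suite scored each ungapped eight-base word together with its reverse complement by E-score.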
row,Sequence,PBM E-score
1,ACAAATGA,-0.158
2,AGACTACT,0.0928
3,CTTAGCGA,0.234
4,GCGTTGCC,-0.00614
5,ACTTACAC,-0.0703
6,GACCATTA,-0.0989
7,AGCGCCTG,-0.148
8,AATGAGTC,-0.0397
9,CAATGTCG,0.0816
10,CCTTACAC,-0.0864
11,TACACAGA,-0.0979
12,TACCGAAA,0.159
13,AACAAGCG,0.214
14,ATGCTTAG,-0.261
15,AAGAAGCT,-0.0508
16,AAATTCCC,-0.163
17,AATGGCGT,-0.0396
18,AAATGTCC,-0.0625
19,GCGCTACA,-0.059
20,GGGGGATA,-0.233
21,AAGTAAGA,-0.302
22,AAGGCACG,-0.00016

row,Sequence,PBM E-score
1,GACAGGAC,-0.0177
2,ACTCATCG,0.0131
3,CGTGTCCC,0.0542
4,GGCCAGGA,-0.203
5,ACACCCAT,0.176
6,CATCTTTC,-0.144
7,CATAAATG,-0.268
8,AACTTACA,-0.11
9,GCTAACGA,0.281
10,GTAGCCTA,-0.109
11,CGACATTA,0.195
12,CGTAAAAC,0.367
13,GTAGCGAC,0.111
14,GCATTGAA,0.0472
15,AGCCAGAC,0.00884
16,AGGTAGTC,-0.116
17,GGCCTAGA,-0.244
18,ACTCTGAC,-0.0951
19,ATGATTTC,0.053
20,GGTCCATA,-0.198
21,ATCCTGGA,-0.0612
22,GTGAAACA,0.0398

row,Sequence,PBM E-score
1,CCCCCAGG,-0.266
2,TAGCGTCA,-0.123
3,CCGGCCGA,-0.113
4,CAGCCCCG,-0.014
5,CCATAGCC,-0.339
6,CACTCTTC,-0.0163
7,ATCGGCAT,0.0759
8,GTTAATGA,0.0625
9,AAGACATC,-0.236
10,CGACAGCC,0.0652
11,CACGCAGG,0.0145
12,ATAGCTGA,-0.15
13,GATTTCCA,-0.146
14,ACCCTCAC,-0.215
15,AAACCAGG,-0.0434
16,CGCACCTC,0.00643
17,GGAAGATA,-0.0637
18,AAGCTAGA,-0.165
19,CAGTTGCA,0.0569
20,GTAGCAAA,0.0111
21,CATGTTAC,0.064
22,AGGTTGGG,-0.0922

row,Sequence,PBM E-score
1,AATCCACA,-0.076
2,CCGTCAAC,-0.141
3,CACCCCAG,-0.0849
4,AGTATGAC,0.0876
5,AATATCCA,0.0341
6,TCACCCCA,-0.109
7,CCGTGATA,-0.151
8,AAAATGTG,-0.168
9,GCGATGAC,0.174
10,GAGTGGAC,-0.0827
11,ATATAGAT,0.213
12,GTCGTGTA,0.304
13,AACCCACG,-0.0836
14,ATGCTAAC,0.00838
15,ACTCCGAC,-0.0614
16,CCACCTAA,-0.305
17,AGACCGCT,-0.111
18,CATAACAA,0.00709
19,ACGGGTGG,0.0111
20,CTCAGAAG,-0.0949
